Measured values as given in article PMC9911399, “Two distinct binding modes provide the RNA-binding protein RbFox with extraordinary sequence specificity”.
Numbering of substitutions follows the chain as printed; changes in the protein carry UniProt numbers. The list shows a part of the results.

T1: RBFOX1 RRM (Homo sapiens, UniProt Q9NWB1 109-208)
T1 sequence: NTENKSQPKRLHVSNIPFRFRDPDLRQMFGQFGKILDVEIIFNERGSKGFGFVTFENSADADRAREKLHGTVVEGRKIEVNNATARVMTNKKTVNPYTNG

B1: AUUAACG (DNA:RNA)
RNA: GGGAGACCGGAAUUCAGAUUGUCCAUUAACGUUAAAUCCCGUCGUAGCCACCA
DNA 1: CAATCTGAATTCCGGTCTCCC
DNA 2: TGGTGGCTACGACGGGATT
B2: AGCUAGA (DNA:RNA)
RNA: B1 RNA with U26G, U27C, A28U, C30G, G31A
DNA 1: CAATCTGAATTCCGGTCTCCC
DNA 2: TGGTGGCTACGACGGGATT
B3: AGUAAUU (DNA:RNA)
RNA: B1 RNA with U26G, C30U, G31U
DNA 1: CAATCTGAATTCCGGTCTCCC
DNA 2: TGGTGGCTACGACGGGATT
B4: GCGAGAC (DNA:RNA)
RNA: B1 RNA with A25G, U26C, U27G, A29G, C30A, G31C
DNA 1: CAATCTGAATTCCGGTCTCCC
DNA 2: TGGTGGCTACGACGGGATT
B5: UCGGGCC (DNA:RNA)
RNA: B1 RNA with A25U, U26C, U27G, A28G, A29G, G31C
DNA 1: CAATCTGAATTCCGGTCTCCC
DNA 2: TGGTGGCTACGACGGGATT
B6: CUACCCA (DNA:RNA)
RNA: B1 RNA with A25C, U27A, A28C, A29C, G31A
DNA 1: CAATCTGAATTCCGGTCTCCC
DNA 2: TGGTGGCTACGACGGGATT
B7: CCGUCCA (DNA:RNA)
RNA: B1 RNA with A25C, U26C, U27G, A28U, A29C, G31A
DNA 1: CAATCTGAATTCCGGTCTCCC
DNA 2: TGGTGGCTACGACGGGATT
B8: CGUGCAU (DNA:RNA)
RNA: B1 RNA with A25C, U26G, A28G, A29C, C30A, G31U
DNA 1: CAATCTGAATTCCGGTCTCCC
DNA 2: TGGTGGCTACGACGGGATT
B9: GUGACAA (DNA:RNA)
RNA: B1 RNA with A25G, U27G, A29C, C30A, G31A
DNA 1: CAATCTGAATTCCGGTCTCCC
DNA 2: TGGTGGCTACGACGGGATT
B10: ACCUCAC (DNA:RNA)
RNA: B1 RNA with U26C, U27C, A28U, A29C, C30A, G31C
DNA 1: CAATCTGAATTCCGGTCTCCC
DNA 2: TGGTGGCTACGACGGGATT
B11: GAUCCUC (DNA:RNA)
RNA: B1 RNA with A25G, U26A, A28C, A29C, C30U, G31C
DNA 1: CAATCTGAATTCCGGTCTCCC
DNA 2: TGGTGGCTACGACGGGATT
B12: AAUUAUG (DNA:RNA)
RNA: B1 RNA with U26A, A28U, C30U
DNA 1: CAATCTGAATTCCGGTCTCCC
DNA 2: TGGTGGCTACGACGGGATT
B13: CAAGUUC (DNA:RNA)
RNA: GGGAGACCGGAAUUCAGAUUGUCCCAAGUUCUUAAAUCCCGUCGUAGCCACCA
DNA 1: CAATCTGAATTCCGGTCTCCC
DNA 2: TGGTGGCTACGACGGGATT
B14: GCAAGUC (DNA:RNA)
RNA: B13 RNA with C25G, A26C, G28A, U29G
DNA 1: CAATCTGAATTCCGGTCTCCC
DNA 2: TGGTGGCTACGACGGGATT
B15: AUACACC (DNA:RNA)
RNA: B1 RNA with U27A, A28C, G31C
DNA 1: CAATCTGAATTCCGGTCTCCC
DNA 2: TGGTGGCTACGACGGGATT
B16: AGCGAUG (DNA:RNA)
RNA: B1 RNA with U26G, U27C, A28G, C30U
DNA 1: CAATCTGAATTCCGGTCTCCC
DNA 2: TGGTGGCTACGACGGGATT
B17: AUGCAAG (DNA:RNA)
RNA: B1 RNA with U27G, A28C, C30A
DNA 1: CAATCTGAATTCCGGTCTCCC
DNA 2: TGGTGGCTACGACGGGATT
B18: AGGAACA (DNA:RNA)
RNA: B1 RNA with U26G, U27G, G31A
DNA 1: CAATCTGAATTCCGGTCTCCC
DNA 2: TGGTGGCTACGACGGGATT
B19: GGGUGGA (DNA:RNA)
RNA: GGGAGACCGGAAUUCAGAUUGUCCGGGUGGAUUAAAUCCCGUCGUAGCCACCA
DNA 1: CAATCTGAATTCCGGTCTCCC
DNA 2: TGGTGGCTACGACGGGATT
B20: UUCAGUG (DNA:RNA)
RNA: B1 RNA with A25U, U27C, A29G, C30U
DNA 1: CAATCTGAATTCCGGTCTCCC
DNA 2: TGGTGGCTACGACGGGATT
B21: GAAACUA (DNA:RNA)
RNA: B13 RNA with C25G, G28A, U29C, C31A
DNA 1: CAATCTGAATTCCGGTCTCCC
DNA 2: TGGTGGCTACGACGGGATT
B22: CUUAUGA (DNA:RNA)
RNA: B1 RNA with A25C, A29U, C30G, G31A
DNA 1: CAATCTGAATTCCGGTCTCCC
DNA 2: TGGTGGCTACGACGGGATT
B23: CGAGCAA (DNA:RNA)
RNA: B13 RNA with A26G, U29C, U30A, C31A
DNA 1: CAATCTGAATTCCGGTCTCCC
DNA 2: TGGTGGCTACGACGGGATT
B24: CAGGAUC (DNA:RNA)
RNA: B13 RNA with A27G, U29A
DNA 1: CAATCTGAATTCCGGTCTCCC
DNA 2: TGGTGGCTACGACGGGATT
B25: GUUAUCC (DNA:RNA)
RNA: B1 RNA with A25G, A29U, G31C
DNA 1: CAATCTGAATTCCGGTCTCCC
DNA 2: TGGTGGCTACGACGGGATT
B26: CUCCGAG (DNA:RNA)
RNA: B1 RNA with A25C, U27C, A28C, A29G, C30A
DNA 1: CAATCTGAATTCCGGTCTCCC
DNA 2: TGGTGGCTACGACGGGATT
B27: GGGAUAA (DNA:RNA)
RNA: B19 RNA with U28A, G29U, G30A
DNA 1: CAATCTGAATTCCGGTCTCCC
DNA 2: TGGTGGCTACGACGGGATT
B28: ACAAAAA (DNA:RNA)
RNA: B1 RNA with U26C, U27A, C30A, G31A
DNA 1: CAATCTGAATTCCGGTCTCCC
DNA 2: TGGTGGCTACGACGGGATT
B29: GACACAA (DNA:RNA)
RNA: B19 RNA with G26A, G27C, U28A, G29C, G30A
DNA 1: CAATCTGAATTCCGGTCTCCC
DNA 2: TGGTGGCTACGACGGGATT
B30: ACAGCGA (DNA:RNA)
RNA: B13 RNA with C25A, A26C, U29C, U30G, C31A
DNA 1: CAATCTGAATTCCGGTCTCCC
DNA 2: TGGTGGCTACGACGGGATT
B31: CGUUGUA (DNA:RNA)
RNA: B19 RNA with G25C, G27U, G30U
DNA 1: CAATCTGAATTCCGGTCTCCC
DNA 2: TGGTGGCTACGACGGGATT

biological target: T1, RBFOX1 RRM; assay: EMSA; HiTS-Eq, 1 nM pool, 10 min; buffer printed only for the single-RNA assays: 10 mM Tris pH 7.5, 150 mM NaCl, 3.4 mM EDTA, 0.001% NP-40, 30 C; conditions: tags: His6 N-terminal (pET28a); label: 5' 32P
Procedure, shortened: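 Purified RbFox RRM, wild type or mutant, was incubated for 10 min in 50 µL with 1 nM of a 5′-radiolabelled RNA pool carrying 7 randomized nucleotides, whose flanks were annealed to DNA oligonucleotides, over a series of increasing protein concentrations. Unbound RNA was resolved on 8% native PAGE, cut out, reverse-transcribed, barcoded by PCR and sequenced on an Illumina HiSeq 2500. Relative association constants were derived from changes in read counts for each RNA species versus the control reaction and normalised to the cognate motif.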

Row | Binder | binding signal
1 | B1 | 0.00134 KA relative to UGCAUGU
2 | B2 | 0.0149 KA relative to UGCAUGU
3 | B3 | 0.00647 KA relative to UGCAUGU
4 | B4 | 0.0132 KA relative to UGCAUGU
5 | B5 | 0.011 KA relative to UGCAUGU
6 | B6 | 0.00346 KA relative to UGCAUGU
7 | B7 | 0.00507 KA relative to UGCAUGU
8 | B8 | 0.0166 KA relative to UGCAUGU
9 | B9 | 0.0111 KA relative to UGCAUGU
10 | B10 | 0.00387 KA relative to UGCAUGU
11 | B11 | 0.0113 KA relative to UGCAUGU
12 | B12 | 0.00591 KA relative to UGCAUGU
13 | B13 | 0.00523 KA relative to UGCAUGU
14 | B14 | 0.0118 KA relative to UGCAUGU
15 | B15 | 0.00041 KA relative to UGCAUGU
16 | B16 | 0.0124 KA relative to UGCAUGU

Row | Binder | binding signal
17 | B17 | 0.0139 KA relative to UGCAUGU
18 | B18 | 0.00792 KA relative to UGCAUGU
19 | B19 | 0.0176 KA relative to UGCAUGU
20 | B20 | 0.0164 KA relative to UGCAUGU
21 | B21 | 0.00411 KA relative to UGCAUGU
22 | B22 | 0.0108 KA relative to UGCAUGU
23 | B23 | 0.00594 KA relative to UGCAUGU
24 | B24 | 0.0113 KA relative to UGCAUGU
25 | B25 | 0.0109 KA relative to UGCAUGU
26 | B26 | 0.009 KA relative to UGCAUGU
27 | B27 | 0.0268 KA relative to UGCAUGU
28 | B28 | 0.000316 KA relative to UGCAUGU
29 | B29 | 0.00153 KA relative to UGCAUGU
30 | B30 | 0.00555 KA relative to UGCAUGU
31 | B31 | 0.00783 KA relative to UGCAUGU
